The text below walks through data of ChEMBL document CHEMBL4888484, “Replenishing the malaria drug discovery pipeline: Screening and hit evaluation of the MMV Hit Generation Library 1 (HGL1) against asexual blood stage Plasmodium falciparum ,using a nano luciferase reporter read-out” (2022).

Out of some 150,000 compounds screened, about 540 (0.36%) showed an effect of 50% or more. Some of the results follow.

This assay has as its system Plasmodium falciparum. Description: Primary screen in NF54 nanoGlo assay, in single point, at 2uM, 72h; a lower Z score goes with more inhibition. Type of assay: functional, Erythrocyte. Particulars: timepoint 72 hour.
One may read the % Inhibition as the relative decrease from the control value, in per cent. For the compound `O=C(O)c1cccnc1CN1CCC(Cc2cccc(F)c2F)CC1`, the “% Inhibition” value was -15% and the Z score was determined as 1.65.

On to `O=C(Nc1nc2c(s1)CCCC2)c1cc(O)nc2ccccc12`, for which the “% Inhibition” value was 4% and the Z score is given as -0.7.

Regarding `Cc1ccc(S(=O)(=O)NCc2nn(C3CCCC3)c(=O)c3ccccc23)cc1`, the “% Inhibition” value is listed as -12% and the Z score is 1.56.

Regarding `Cc1cc(NC(=O)N[C@H](CCO)c2ccccc2)ccc1N(C)C`, the “% Inhibition” value is given as -26% and the Z score turned out to be 2.36.

`CCCCc1noc(CN2C(=O)CN(C=Cc3ccccc3)C2=O)n1`: the “% Inhibition” value is reported as -21% and the Z score was 1.9.

With `CCOC(=O)C1CCCN(C(=O)CC2(c3ccccc3)CC(=O)N(CCc3ccccn3)C2=O)C1` (stereo not drawn), the “% Inhibition” value was 11% and the Z score is listed as -1.45.

In the case of `O=S(=O)(NC1(c2ccccc2F)COC1)c1cnc2n1CCC2`, the “% Inhibition” value is listed as -1% and the Z score is 0.12.

Turning to `COc1cccc(CO[C@H]2CN(CC(C)C)C(=O)CN(C(=O)c3cscn3)C2)c1`, the “% Inhibition” value is -16% and the Z score is reported as 2.09.

For the compound `CNC(=O)Nc1ccccc1Br`, the “% Inhibition” value is recorded as -11% and the Z score is recorded as 2.3.

As for `N#C[C@@](CCc1ccccc1)(c1ccccc1)c1cnccn1`, the “% Inhibition” value turned out to be 13% and the Z score is -1.53.

Take `O=C1CCC2(CCNCC2)CN1[C@@H](Cc1ccccc1)c1ccccc1`: the “% Inhibition” value is 0% and the Z score is reported as -0.04.

`CC(=O)Nc1ccc(-c2cnc(C3CCOCC3)o2)cn1`: the “% Inhibition” value is reported as -6% and the Z score is 0.67.

`CN(CCCn1ccnc1)C(=O)c1ccnc(N(C)C)c1`: the “% Inhibition” value is given as -12% and the Z score stood at 1.13.

For the compound `COc1cc(Cl)c(Cl)cc1NC(=O)NCCCO`, the “% Inhibition” value came out at 6% and the Z score is given as -0.63.

Regarding `N#CCC1(COC(=O)c2cnn(-c3ccccc3)n2)CC1`, the “% Inhibition” value was -15% and the Z score stood at 2.82.

`Cn1cccc1C(=O)N1CCC[C@H](CCc2noc(-c3cccnc3)n2)C1`: the “% Inhibition” value is 5% and the Z score is reported as -0.77.

Consider `Cn1ncnc1Cn1cnn(C(C)(C)C)c1=O`, for which the “% Inhibition” value was -1% and the Z score was determined as 0.09.

Take `CCOc1cc([C@H]2CC(=O)Nc3c(S(=O)(=O)c4ccc(Cl)cc4)csc32)ccc1OC(C)C`: the “% Inhibition” value is -1% and the Z score worked out at 0.13.

`Cc1nc2ccccc2n1CCNC(C)C1CN(C)CCN1C` (stereo not drawn): the “% Inhibition” value is listed as -10% and the Z score was 1.28.

Regarding `CS(=O)(=O)c1ccc(-c2nnc(NC(=O)c3cccc4ccccc34)o2)cc1`, the “% Inhibition” value is -19% and the Z score was found to be 2.44.

On to `CCn1cc(C(=O)N2C[C@@H]3C[C@H]2CN3c2ccccc2)nn1`, for which the “% Inhibition” value was -9% and the Z score is recorded as 1.48.

In the case of `Cc1cc(NCCc2noc(C(C)C)n2)cc(C)n1`, the “% Inhibition” value is reported as -9% and the Z score was 1.

With `Cc1ccc(C(C)C)cc1OC(=O)c1ccc2nccnc2c1`, the “% Inhibition” value is on record as -12% and the Z score worked out at 1.74.

Turning to `CCC(C)C(NCCC(=O)c1ccc(Cl)cc1)C(=O)O` (stereo not drawn), the “% Inhibition” value is -10% and the Z score came out at 1.57.
